Assay results from PubChem BioAssay AID1030 (National Center for Advancing Translational Sciences (NCATS), 2008).
“And” between values parts separate entries of the source, which are not always exact repeats. Identical values can stand only once. The whole screen tested about 220,000 compounds, of which about 16,000 (7.3%) were called active. Inconclusive results, whose numbers are uncertain, are shown with a selection of clear calls. The call rests on the fitted dose curve; in most records, active means well fitted inhibition curve with a large enough effect (not every such curve was filed as active); inconclusive means small, poorly fitted or top-dose-only effect, or another doubt; inactive means no such curve, though single readings can be large or run the other way. Potencies beside an inconclusive call are fits to weak or partial responses and may not hold up.

Molecular target: Aldehyde dehydrogenase 1A1 (Homo sapiens) (UniProt P00352)
Assay: qHTS Assay for Inhibitors of Aldehyde Dehydrogenase 1 (ALDH1A1);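 on activity, negative = inhibition: plate controls were no enzyme wells and a reference inhibitor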
Conditions: Purified ALDH1A1, NADH fluorescence, propionaldehyde substrate; series mostly up to 75.3 µM; activity, negative = inhibition: at the top concentration
Potency means the concentration at half of the fitted maximal effect; tags describe the fitted curve by direction and shape.

Chain of UniProt P00352 (P00352 whole entry, looked up): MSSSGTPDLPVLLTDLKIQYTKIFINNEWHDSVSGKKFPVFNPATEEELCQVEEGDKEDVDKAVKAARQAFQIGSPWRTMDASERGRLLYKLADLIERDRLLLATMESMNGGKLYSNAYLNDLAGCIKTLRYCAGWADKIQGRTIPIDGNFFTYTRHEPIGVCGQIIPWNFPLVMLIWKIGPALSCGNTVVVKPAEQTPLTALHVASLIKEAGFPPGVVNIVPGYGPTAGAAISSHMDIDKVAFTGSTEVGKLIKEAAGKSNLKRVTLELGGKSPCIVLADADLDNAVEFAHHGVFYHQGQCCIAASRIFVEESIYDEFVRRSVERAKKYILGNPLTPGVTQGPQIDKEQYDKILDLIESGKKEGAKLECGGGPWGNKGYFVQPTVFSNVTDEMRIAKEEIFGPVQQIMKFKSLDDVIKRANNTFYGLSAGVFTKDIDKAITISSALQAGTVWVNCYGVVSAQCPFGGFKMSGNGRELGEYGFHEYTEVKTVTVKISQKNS

Structure (SMILES)	activity, negative = inhibition	Potency
CC(C)c1ccc(-c2nnn(CCC(=O)O)n2)cc1	inactive: -0.383%	
CC1CCCCC1NC(=O)C1CCN(S(=O)(=O)c2ccc3c(c2)CCC(=O)N3)CC1 (configuration not stated)	inactive: -5.12%	
CC(=O)Nc1sc(C)c(C)c1C(=O)OCC(=O)Nc1cc(S(=O)(=O)N2CCCCC2)ccc1Cl		inconclusive: 12.6 µM [inhibitor, partial curve]
COC(=O)C1=C(C)NC2=C(C(=O)CCC2)C1c1cn(Cc2ccc(Cl)cc2Cl)nc1-c1ccccc1 (configuration not stated)		inconclusive: 31.6 µM [inhibitor, partial curve]
Cc1ccc(C(=O)SC2=NCCS2)cc1		inconclusive: 39.8 µM [inhibitor, single point]
CCN1C(=O)C(Cc2nc3ccccc3c(=O)n2C)c2ccccc21 (configuration not stated)		inconclusive: 25.1 µM [inhibitor, partial curve, poor fit]
CC(=O)OC1CC2C(C)(C)C(O)C=C[C@@]2(C)C2CC[C@@]3(C)C(c4ccoc4)OC(=O)C4OC43[C@]12C (some centres not stated)	inactive: -2.64%	
CN1C(=O)C2(c3ccccc31)C1CCCC=C1C(C#N)=C(N)C2(C#N)C#N (configuration not stated)		inconclusive: 20 µM [inhibitor, single point]
Cc1nc(NC(=S)NC(=O)c2cccs2)sc1C(=O)N(C)C		active: 4.47 µM
O=C(CSc1nccc(=O)[nH]1)Nc1cccc(S(=O)(=O)N2CCOCC2)c1	inactive: 2.76%	
O=C(CCN1CCCCC1)Nc1ccc2c(c1)C(=O)c1ccc(NC(=O)CCN3CCCCC3)cc1C2=O		inconclusive: 39.8 µM [inhibitor, single point]
[O-][n+]1onc2c1CCc1nnc(-c3ccccc3)cc1-2		inconclusive: 28.2 µM [inhibitor, single point]
CCCc1cc(=O)n2[nH]c(-c3ccc(Br)cc3)cc2n1	inactive: -1.16%	
CCCC[C@H](CC)CN1CN(C[C@@H](CC)CCCC)CC(C)(N)C1	inactive: 1.25% [at 20.9 µM]	
COc1ccc(CC(NC(C)=O)C(=O)NC2CCN(c3nnnn3-c3ccccc3)CC2)cc1 (configuration not stated)		active: 2.51 µM
COC(=O)c1ccc(C(=O)OC)c(NC(=S)N2CCC(N3CCCCC3)CC2)c1		inconclusive: 31.6 µM [inhibitor, single point]
O=C(O)C1C2C=CC(C2)C1C(=O)NCCCn1ccnc1 (configuration not stated)	inactive: -7.81%	
Cc1ccc2c(c1)N1C(=O)c3ccccc3C1C1=C(CC(C)(C)CC1=O)N2 (configuration not stated)	inactive: 3.65%	
c1ccc(CCNCc2ccco2)nc1	inactive: -4.22% [at 13.5 µM]	
CCOc1cc(S(=O)(=O)Nc2ccc(CC)cc2)ccc1Cl		inconclusive: 10 µM [inhibitor, partial curve, poor fit]
CCOC(=O)C1CCN(C(=O)Cc2c(C(=O)O)[nH]c3ccccc23)CC1		inconclusive: 44.7 µM [inhibitor, single point]
O=C(CN1N=C(c2ccc(Cl)cc2)CCC1=O)NCc1cccs1	inactive: -1.92%	
Nc1c(S(=O)(=O)c2cccs2)c2nc3ccccc3nc2n1Cc1ccccc1		inconclusive: 28.2 µM [inhibitor, partial curve]
COC(=O)c1cc(CN2CCN(c3ccccc3C)CC2)ccc1O		inconclusive: 37.7 µM [inhibitor, single point]
O=C(NN=C1CCCC1)c1sc2ccccc2c1Cl		active: 15.8 µM
[N-]=[N+]=CC(=O)CCCN1C(=O)c2ccccc2C1=O		active: 10 µM

Structure (SMILES)	activity, negative = inhibition	Potency
N#Cc1cnn2c(-c3ccc(Cl)cc3Cl)ccnc12	inactive: -13.3%	
CN(C)c1nc2c(c(=O)[nH]c(=O)n2C)n1Cc1ccccc1Br	inactive: 7.69%	
Cc1ccc(S(=O)(=O)CCC(=O)OCC(=O)c2ccc(C)c(C)c2)cc1		inconclusive: 39.8 µM [inhibitor, single point]
C/[N+]([O-])=C\c1ccc([N+](=O)[O-])o1	inactive: 3.25%	
COC(=O)c1[nH]c2ccc(Cl)cc2c1NC(=O)C1CC1		inconclusive: 39.8 µM [inhibitor, single point]
COCCN(C(=O)CCc1ccccc1OC)c1nnc(-c2cccnc2)s1	inactive: 3.91%	
CSc1ccc(C(=O)C2CCCN(S(=O)(=O)c3c(C)noc3C)C2)cc1 (configuration not stated)	inactive: -7.37%	
N=C1C(c2nc3ccccc3[nH]2)=C(O)CN1c1ccc(CC(=O)O)cc1		active: 23.8 µM
O=C(COc1ccc([N+](=O)[O-])cc1)NN=C1CCCC1	inactive: -6.26%	
COCCCN1C(=O)C(=O)/C(=C(/O)c2ccc3c(c2)CC(C)O3)C1c1cccnc1 (configuration not stated)		active: 39.8 µM
COc1ccc(N(C(=O)CCl)C(C(=O)NCCc2ccccc2)c2cccs2)cc1 (configuration not stated)	inactive: 1.43%	
Cc1cc(C)c(NC(=S)N2CCCC2C(=O)O)c(C)c1 (configuration not stated)		active: 22.4 µM
Cc1ccc(CN2CCN(CC(=O)NCCCN3CCN(c4ccc(F)cc4)CC3)C2=O)cc1		inconclusive: 28.2 µM [inhibitor, single point]
CCc1nnc(NS(=O)(=O)c2ccc(NC(=S)NC(=O)c3cccnc3)cc2)s1		inconclusive: 39.8 µM [inhibitor, single point]
COC(=O)[C@H](Cc1ccccc1)NC(=O)O[C@@H]1C(=O)c2cc(Br)ccc2O[C@H]1c1cccc(OC)c1		inconclusive: 28.2 µM [inhibitor, single point] and inconclusive: 22.4 µM [inhibitor, single point]
Cc1ccccc1NC(=O)C1CCCN1/C=C/C(=O)C(F)(F)F (configuration not stated)	inactive: 7.58%	
Cc1cc(CCC(=O)O)c(C)cc1CCC(=O)O	inactive: -3.95%	
COCCCn1c2nc3ccccc3nc2c2c(=O)n(CC3CCCO3)cnc21 (configuration not stated)		inconclusive: 28.2 µM [inhibitor, partial curve]
Cc1ccc(S(=O)(=O)CC(C)(O)CS(=O)(=O)c2ccc(C)cc2)cc1		inconclusive: 39.8 µM [inhibitor, single point]
COc1cccc(-c2cc(C(F)(F)F)n3nc(C(=O)N4CCCCC4c4cccnc4)cc3n2)c1 (configuration not stated)		active: 22.4 µM
O=C(N/N=C/c1c(Cl)cccc1Cl)c1n[nH]c2c1CCCC2	inactive: -2.99%	
C=CCc1ccc2oc(C(=O)OCC)cc(=O)c2c1O	inactive: -2.78%	
COc1ccc(C=O)cc1OC(=O)C1(C)Cc2ccccc2C(=O)O1 (configuration not stated)		active: 5.01 µM
C(=N\Nc1nc(N2CCOCC2)nc(N2CCOCC2)n1)/c1ccncc1	inactive: -4.14%	
COc1cc2cc(CN(C(=O)Nc3ccccc3)C3CCCC3)c(=O)[nH]c2cc1OC		inconclusive: 35.5 µM [inhibitor, single point]
COc1ccc(C2=NOC(Cn3c(Cc4ccc(Cl)cc4)nc4c3c(=O)n(C)c(=O)n4C)C2)cc1 (configuration not stated)		inconclusive: 20 µM [inhibitor, partial curve]

Structure (SMILES)	activity, negative = inhibition	Potency
COC(=O)c1ccc(NC(=O)C2C3CCC(C3)C2C(=O)O)cc1 (configuration not stated)		inconclusive: 22.4 µM [inhibitor, single point]
OC(COc1ccccc1)Cn1cc(Br)cn1 (configuration not stated)	inactive: 2.81%	
O=C(/C=C/NNC(=O)c1ccccc1)c1ccc(Br)cc1		inconclusive: 22.4 µM [inhibitor, partial curve]
COc1ccc(CC(=O)c2ccc(O)cc2O)cc1		inconclusive: 20 µM [inhibitor, partial curve]
Cc1cccn2c(=O)c(C=O)c(N3CCCCC3)nc12		inconclusive: 22.4 µM [inhibitor, partial curve]
Cc1cc(C)n(-c2ncnc3sc4c(c23)CC(C)CC4)n1 (configuration not stated)		inconclusive: 14.1 µM [inhibitor, partial curve]
N#C/C(=C\c1cn[nH]c1-c1ccc(Cl)cc1)C(=O)NCc1ccccc1		active: 22.4 µM
COc1cccc(-c2nc(NC3CC3)c3ccccc3n2)c1		inconclusive: 35.5 µM [inhibitor, single point]
CC(C)C[C@@H]1NC(=O)[C@H](Cc2ccc(O)cc2)NC(=O)[C@H](CCC(N)=O)NC(=O)c2cc([N+](=O)[O-])cc(I)c2NCC[C@@H](C(N)=O)NC1=O		active: 3.98 µM
COc1ccccc1CNC(=O)CSc1ccc(C)cc1	inactive: 0.623%	
CCC(C)(C)NC(=O)C(c1ccccc1)N(Cc1cccnc1)C(=O)c1csnn1 (configuration not stated)	inactive: 3.13%	
COc1ccc(-c2ccc(C#N)c(SCC(=O)Nc3sc4c(c3C#N)CCC4)n2)cc1	inactive: -1.87%	
Cc1cnc(CN2CCc3c([nH]c4ccccc34)C2CC(C)C)[nH]1 (configuration not stated)		inconclusive: 44.7 µM [inhibitor, single point]
Cc1ccc(Nc2cc(-n3nc(C)cc3C)ncn2)cc1	inactive: 15.1%	
COc1ccc(/C=C2\CCc3ccccc3C2=O)cc1Cn1nc(C)cc1C		inconclusive: 44.7 µM [inhibitor, single point]
Fc1ccccc1	inactive: -4.7%	
CCN(CC)S(=O)(=O)c1cccc(-c2nnc(SC(C)C#N)n2Cc2ccccc2)c1 (configuration not stated)		active: 7.94 µM
COc1ccccc1CNc1ccnc(-c2ccc(N(C)C)cc2)n1		inconclusive: 22.4 µM [inhibitor, partial curve]
O=C1CC(N2CCN(Cc3ccccc3)CC2)C(=O)N1c1ccc2c(c1)OCCO2 (configuration not stated)		active: 7.08 µM
N#Cc1ccc(C(c2nnnn2Cc2ccccc2)N2CCCC2)cc1 (configuration not stated)	inactive: -0.289%	
CCn1c(SCC(=O)Nc2ccc3c(c2)OCO3)nc2ccccc21		inconclusive: 39.8 µM [inhibitor, single point]
Cc1ccc(C)c(S(=O)(=O)Nc2ccc(C(=O)NCCc3ccccn3)cc2)c1	inactive: -7.61%	
CC(=O)Nc1ccc(NC(=O)COC(=O)C2(c3ccc(Cl)cc3)CCCC2)cc1		inconclusive: 22.4 µM [inhibitor, partial curve]
O=C1NC(=O)C2C1C(c1cccs1)NN2Cc1ccccc1 (configuration not stated)	inactive: -8.07%	
COc1ccc(C(=O)n2c(-c3ccco3)nc3ccccc32)cc1		inconclusive: 28.2 µM [inhibitor, partial curve]
